In patent publication US20130317027A1, “COMPOUNDS AND THERAPEUTIC USES THEREOF” (Myrexis, Inc, priority 2010, published 2013):
Further values from the same series stand in other lists.

System: cell lines (cancer, normal and primary cells)
Experiment: NA Rescue assay (cytotoxicity with nicotinic acid added)
Assay type: cell-based
Procedure: Cell lines were treated with a fixed dose of Exemplary Compound A and screened for NA rescue and Naprt1 expression by immunoblotting and quantitative RT-PCR (Table 7). […] The 176 cell lines included 5 normal (non-cancerous) cells and 3 primary cells (italicized in the table), all of which rescued. Naprt1 was quantified by western blotting and q-RT-PCR in 164 and 123 of the 176 cell lines, respectively. […] A statistically significant (p value <0.0001) correlation existed between NA rescue phenotype and Naprt1 protein or mRNA expression levels.
Additional cancer cell lines were treated with Exemplary Compounds A, C, D, E, F, G and H (identified below) (Table 8). The NA rescue phenotype of a particular cancer cell line was maintained for all Nampt inhibitors tested.

Measured: NA rescue

O=C(NCc1cccnc1)Nc1ccc(COc2ccccc2-c2ccccc2)cc1 [Exemplary Compound A]
no: A172 cells, glioma | AMO-1 cells, myeloma, fixed dose | COLO320DM cells, colorectal, fixed dose | COLO320HSR cells, colorectal, fixed dose | HCC827 cells, NSCLC | HT-1080 cells, fibrosarcoma | KINGS-1 cells, brain, anaplastic astrocytoma (glioma), fixed dose | KU812 cells, myelogenous leukemia, fixed dose | MLE-12 cells, mouse, lung, fixed dose | MiaPaCa2 cells, pancreatic | NCI-H460 cells, NSCLC | NCI-H522 cells, NSCLC | NCI-H929 cells, multiple myeloma | NCI-H1650 cells, NSCLC | NIH-3T3 cells, mouse, fibroblast, fixed dose | OPM-2 cells, multiple myeloma | RAW264.7 cells, mouse, leukemia, fixed dose | SF-295 cells, glioma | SU-DHL-5 cells, DLBCL (NHL) | U266 cells, myeloma, fixed dose | U-87MG cells, glioma
yes: A2058 cells, melanoma (lymph node metastasis), fixed dose | CCF-STTG1 cells, brain, astrocytoma, fixed dose | COLO-205 cells, colorectal | DLD-1 cells, colorectal, fixed dose | DMS-114 cells, SCLC | HCC1937 cells, breast, fixed dose | HCC2998 cells, colorectal, fixed dose | HCT-8 cells, colorectal, fixed dose | HCT-15 cells, colorectal, fixed dose | HCT-116 cells, colorectal | HL-60 cells, myelogenous leukemia, fixed dose | HT29 cells, colorectal | Hs93.T cells, fibrosarcoma, fixed dose | Hs414.T cells, fibrosarcoma, fixed dose | K562 cells, myelogenous leukemia (CML), fixed dose | K562 cells, myelogenous leukemia, fixed dose | KM12 cells, colorectal, fixed dose | KMS-11 cells, myeloma, fixed dose | LS174T cells, colorectal, fixed dose | MALME-3M cells, melanoma (lung metastasis), fixed dose | MC/CAR cells, myeloma, fixed dose | MCF7 cells, breast, fixed dose | MDA-MB-231 cells, breast, fixed dose | MDA-MB-436 cells, breast, fixed dose | MEG-01 cells, myelogenous leukemia (CML), fixed dose | MOLM-13 cells, myelogenous leukemia, fixed dose | MV-4-11 cells, myelogenous leukemia, fixed dose | NB-4 cells, myelogenous leukemia, fixed dose | NCI-H82 cells, SCLC | NCI-H2030 cells, lung (NSCLC), fixed dose | NCI-H2110 cells, lung (NSCLC), fixed dose | NCI-H2228 cells, lung (NSCLC), fixed dose | NCI-N87 cells, gastric | OCI-Ly19 cells, DLBCL (NHL) | OVCAR-8 cells, ovarian | RKO cells, colorectal, fixed dose | SK-BR-3 cells, breast, fixed dose | SK-CO-1 cells, colorectal, fixed dose | SNB-75 cells, brain, astrocytoma, fixed dose | SNU-C2B cells, colorectal, fixed dose | SW480 cells, colorectal, fixed dose | SW620 cells, colorectal, fixed dose | SW684 cells, fibrosarcoma, fixed dose | SW872 cells, fibrosarcoma, fixed dose | SW-48 cells, colorectal, fixed dose | UACC-257 cells, melanoma, fixed dose
partial: DB cells, DLBCL (NHL) | Hepa1-6 cells, mouse, hepatoma, fixed dose | NOMO-1 cells, myelogenous leukemia, fixed dose | SKM-1 cells, myelogenous leukemia, fixed dose | SR cells, lymphoma, fixed dose | SU-DHL-4 cells, DLBCL (NHL) | SU-DHL-8 cells, lymphoma, fixed dose | SUP-M2 cells, lymphoma, fixed dose
